Source: PubChem BioAssay (NCATS)
Several values for one entry are separate records, joined by “and”; a condition that tells them apart may be missing. Equal values may be shown once. Inconclusive results, whose numbers are uncertain, are shown with a selection of clear calls. For some of these results: Potencies of inconclusive entries are doubtful fits and often do not repeat. Activity calls are given as the source filed them. Unless noted, calls come from the whole dose curve; as a rule, active = well fitted curve in the direction sought with a large enough effect; inconclusive = small, poorly fitted or top-dose-only effect, or another doubt; inactive = no such curve, though single readings can be large; an effect the other way counts as inactive or inconclusive.

What was measured:
[1] = target: Calcium and integrin-binding protein 1 (Homo sapiens) (UniProt Q99828); test: Primary qHTS for Identification of Calcium Integrin Binding Protein 1 (CIB1) Competitor (AID 1508620); note: potency is the fitted concentration of half-maximal effect;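 for activity change, negative = inhibition: GST tagged CIB1 binding a fluorescein labelled alphaIIb integrin peptide tracer; top concentration of the series differs between compounds; % is set by controls: 0 for no effect and ±100 for the full control effect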
In short: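 CIB1-GST (1 uM final) and compound incubated 15 min at room temperature before adding FITC-alphaIIb peptide tracer (100 nM final). Competition for binding read by fluorescence polarization (ex 480, em 540) after another 15 min at room temperature.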

[2] = A High-Content qHTS Against Drug Library for the Identification of Small Molecules that Inhibit DYT1 Early Onset Primary Dystonia-Associated Cell Pathology (AID 1645839; calls by dose curve; note: potency is the fitted concentration of half-maximal effect)
In short: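 High-content imaging quantified EGFP-TorsinA mislocalization in HEK293-derived cells inducibly expressing DYT1 mutant torsinA, after 48 h exposure to compound given together with tetracycline induction. Cell count served as a toxicity channel alongside %pathology.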

[3] = Primary qHTS for small molecule stabilizers of the endoplasmic reticulum resident proteome: Secreted ER Calcium Modulated Protein (SERCaMP) assay (AID 1508630); details: SH-SY5Y GLuc-SERCaMP (Gaussia luciferase released on ER calcium loss) secretion, thapsigargin, luminescence; activity change, negative = inhibition: at 38.4 µM (top of the series); note: potency is the fitted concentration of half-maximal effect
In short: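 The SH-SY5Y reporter protocol was run at 3 concentrations up to 38.3 uM (primary) or 11 concentrations (follow-up): 16 h compound, 100 nM thapsigargin for 4 h, then extracellular luciferase luminescence.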

[4] = target: Cytochrome P450 2C9 (Homo sapiens) (UniProt P11712); test: Cytochrome P450 family 2 subfamily C member 9 (CYP2C9) small molecule antagonists: luciferase biochemical (cell-free) qHTS assay (AID 1645842; active = well fitted curve in the direction sought with a large enough effect in the repeat runs; inconclusive = weak or mixed curves; inactive = no such curve, though single readings can be large; an effect the other way counts as inactive or inconclusive; note: potency is the fitted concentration of half-maximal effect; nearly all actives have a fitted effect of over 55% in size)
In short: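 P450-Glo CYP2C9 system: proluciferin substrate with enzyme in mix containing 0.4% BSA, 10 min at room temperature, then NADPH regeneration solution added and incubated 1 h at 37C. Detection reagent stopped reaction; luminescence read after 20 min as RLU.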

[5] = Primary qHTS for inhibitors of nuclear receptor binding SET domain protein 2 (NSD2) in an isogenic RCH-ACV NSD2 p.E1099K mutant (9B) (AID 1645876); note: nearly all actives have a fitted effect of over 70% in size; note: potency is the fitted concentration of half-maximal effect
[6] = Primary qHTS for inhibitors of nuclear receptor binding SET domain protein 2 (NSD2) in an RCH-ACV wild type WT cells (2C) (AID 1645877); note: nearly all actives have a fitted effect of over 70% in size; note: potency is the fitted concentration of half-maximal effect
[7] = Counterscreen qHTS for small molecule stabilizers of the endoplasmic reticulum resident proteome: GLuc-NoTag assay (AID 1508627); details: Gaussia luciferase NoTag secretion counterscreen, luminescence; thapsigargin 100 nM for final 4 h; note: potency is the fitted concentration of half-maximal effect
In short: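 Counterscreen line: SH-SY5Y-GLuc-NoTag cells, treated with compound 19 hr before a 4 hr, 100 nM thapsigargin calcium depletion. Secreted Gaussia luciferase in the medium was measured by luminescence after coelenterazine was added (0.07x final), with cells unlysed.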

[8] = Confirmatory qHTS for small molecule stabilizers of the endoplasmic reticulum resident proteome: Secreted ER Calcium Modulated Protein (SERCaMP) assay (AID 1508628); note: potency is the fitted concentration of half-maximal effect; nearly all actives have a fitted effect of over 40% in size
In short: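 Reporter secretion upon ER calcium depletion (100 nM thapsigargin, 4 h, 37C) is measured as medium luminescence with coelenterazine, after 16 h compound pretreatment of SH-SY5Y-GLuc-SERCaMP cells; primary at three concentrations up to 38.3 uM, follow-up at 11 (up to 76.6 uM).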

[9] = Cell Viability qHTS for small molecule stabilizers of the endoplasmic reticulum resident proteome (AID 1508629); details: cell viability counter-screen, 100 nM thapsigargin for final 4 h;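 note: human SH-SY5Y neuroblastoma cells carrying the GLuc-SERCaMP reporter; compound exposure about 46 h in total before the viability read; % is set by controls: 0 for no effect and ±100 for the full control effect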
[10] = target: Cytochrome P450 2D6 (Homo sapiens) (UniProt P10635); test: Cytochrome P450 family 2 subfamily D member 6 (CYP2D6) small molecule antagonists: luciferase biochemical (cell-free) qHTS assay (AID 1645840; active = well fitted curve in the direction sought with a large enough effect in the repeat runs; inconclusive = weak or mixed curves; inactive = no such curve, though single readings can be large; an effect the other way counts as inactive or inconclusive; note: potency is the fitted concentration of half-maximal effect; nearly all actives have a fitted effect of over 55% in size)
In short: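 P450-Glo CYP2D6 system: proluciferin substrate converted by enzyme to luciferin, read by luminescence proportional to activity. Enzyme-substrate mix with compound 10 min at room temperature, then NADPH regeneration 1 h before detection reagent.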
Tags give direction and shape of the fitted curve.

Sequence of UniProt Q99828 (Q99828 whole entry, looked up): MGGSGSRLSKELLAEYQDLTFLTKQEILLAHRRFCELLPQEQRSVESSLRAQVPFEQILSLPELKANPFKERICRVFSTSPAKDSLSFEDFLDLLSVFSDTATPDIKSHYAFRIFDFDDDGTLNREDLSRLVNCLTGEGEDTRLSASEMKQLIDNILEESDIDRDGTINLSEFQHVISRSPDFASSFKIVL
Sequence of UniProt P11712 (P11712 whole entry, looked up): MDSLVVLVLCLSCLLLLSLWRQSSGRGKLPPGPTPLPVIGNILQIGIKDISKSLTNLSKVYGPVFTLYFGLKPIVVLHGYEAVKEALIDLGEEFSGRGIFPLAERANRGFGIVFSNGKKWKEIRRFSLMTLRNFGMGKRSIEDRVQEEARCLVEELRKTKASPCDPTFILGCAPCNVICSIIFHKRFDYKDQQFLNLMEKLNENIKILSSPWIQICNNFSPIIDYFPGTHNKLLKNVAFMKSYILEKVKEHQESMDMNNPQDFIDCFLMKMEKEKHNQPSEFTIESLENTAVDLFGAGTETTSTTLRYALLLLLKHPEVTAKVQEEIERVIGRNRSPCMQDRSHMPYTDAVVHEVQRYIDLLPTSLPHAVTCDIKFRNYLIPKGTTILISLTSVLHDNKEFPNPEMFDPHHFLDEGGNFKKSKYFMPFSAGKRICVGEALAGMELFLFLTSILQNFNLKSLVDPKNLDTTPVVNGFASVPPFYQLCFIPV
Sequence of UniProt P10635 (P10635 whole entry, looked up): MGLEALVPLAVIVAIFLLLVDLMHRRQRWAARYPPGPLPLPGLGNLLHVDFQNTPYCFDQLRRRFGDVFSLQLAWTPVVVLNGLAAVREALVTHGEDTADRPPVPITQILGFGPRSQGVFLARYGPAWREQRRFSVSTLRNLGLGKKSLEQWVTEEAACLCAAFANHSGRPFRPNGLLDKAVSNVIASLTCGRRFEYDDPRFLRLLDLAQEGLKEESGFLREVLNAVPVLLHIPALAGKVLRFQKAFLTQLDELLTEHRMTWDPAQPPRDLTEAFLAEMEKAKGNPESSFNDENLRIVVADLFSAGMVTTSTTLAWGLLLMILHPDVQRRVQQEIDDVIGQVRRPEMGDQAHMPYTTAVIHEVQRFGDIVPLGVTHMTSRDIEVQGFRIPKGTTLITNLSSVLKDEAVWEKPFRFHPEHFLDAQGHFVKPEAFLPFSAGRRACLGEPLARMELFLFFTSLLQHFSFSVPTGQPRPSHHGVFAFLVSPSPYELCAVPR

COC1=C(OC)C(=O)C(CCCCCCCCCCO)=C(C)C1=O
Potency [1]: inconclusive: 50.1 µM [inhibitor, partial curve, poor fit] | Potency [2]: inconclusive: 22.4 µM [inhibitor, partial curve, poor fit]

Cc1ccc(-n2[nH]c(C)c(N=Nc3cccc(-c4cccc(C(=O)O)c4)c3O)c2=O)cc1C
Potency [1]: inconclusive: 44.7 µM [inhibitor, partial curve, poor fit] | Potency [3]: inconclusive: 10.6 µM [inhibitor, single point] | Potency [2]: inconclusive: 12.6 µM [inhibitor, partial curve, poor fit] | Potency [4]: inconclusive: 38.9 µM [inhibitor, single point] | Potency [5]: inconclusive: 33.5 µM [inhibitor, single point] and inconclusive: 11.8 µM [inhibitor, single point] | Potency [6]: inconclusive: 33.5 µM [inhibitor, single point] and inconclusive: 9.34 µM [inhibitor, single point]

O=C(O)C1=NC(C(=O)O)CC(C=CN2c3cc(O)c(OC4OC(CO)C(O)C(O)C4O)cc3CC2C(=O)O)=C1 (stereo unspecified)
Potency [1]: inconclusive: 24.1 µM [inhibitor, partial curve, poor fit]

CC[C@H]1OC(=O)[C@H](C)[C@@H](O[C@H]2C[C@@](C)(OC)[C@@H](O)[C@H](C)O2)[C@H](C)[C@@H](O[C@@H]2O[C@H](C)C[C@H](N(C)C)[C@@H]2O)[C@](C)(OC)C[C@@H](C)C(=O)[C@H](C)[C@@H](O)[C@]1(C)O
Potency [1]: inactive

Cc1nc(C(=O)NCC(=O)O)c(O)c2ccc(Oc3ccccc3)cc12
Potency [1]: inconclusive: 34.1 µM [inhibitor, partial curve, poor fit] and inconclusive: 56.2 µM [inhibitor, partial curve, poor fit] | Potency [5]: inactive and inconclusive: 37.2 µM [inhibitor, single point] | Potency [6]: inconclusive: 12.9 µM [inhibitor, partial curve, poor fit] and inconclusive: 37.2 µM [inhibitor, single point]

Cn1cnc2c1c(=O)[nH]c(=O)n2C
Potency [1]: inconclusive: 89.1 µM [inhibitor, single point] | Potency [3]: inconclusive: 10 µM [inhibitor, partial curve, poor fit] | Potency [5]: inconclusive: 33.5 µM [inhibitor, single point] | Potency [6]: inconclusive: 29.9 µM [inhibitor, single point] and inactive

Cc1cccc(C)c1OCC(=O)N[C@@H](Cc1ccccc1)[C@@H](O)C[C@H](Cc1ccccc1)NC(=O)[C@H](C(C)C)N1CCCNC1=O
Potency [7]: active: 39.8 µM | Potency [8]: inconclusive: 3.98 µM [inhibitor, full curve] | max response [9]: inactive: -5.9% | Potency [3]: inconclusive: 10.6 µM [inhibitor, single point] and inconclusive: 4.47 µM [inhibitor, partial curve, poor fit] | Potency [2]: inconclusive: 8.91 µM [inhibitor, partial curve, poor fit] | Potency [5]: inconclusive: 18.8 µM [inhibitor, single point] | Potency [6]: inconclusive: 26.6 µM [inhibitor, single point]

C[C@]12CC[C@H](O)CC1=CC[C@@H]1[C@H]2CC[C@]2(C)C(c3cccnc3)=CC[C@H]12
Potency [1]: inactive

CC(CCc1ccc(O)cc1)NCCc1ccc(O)c(O)c1 (stereo unspecified)
Potency [7]: inconclusive: 39.8 µM [inhibitor, partial curve] and inconclusive: 25.1 µM [inhibitor, partial curve, poor fit] and inconclusive: 22.4 µM [inhibitor, full curve, poor fit] | Potency [3]: inconclusive: 14.1 µM [inhibitor, partial curve, poor fit] and inconclusive: 4.47 µM [inhibitor, partial curve, poor fit] and inconclusive: 2.51 µM [inhibitor, full curve, poor fit] | Potency [2]: inconclusive: 17.8 µM [inhibitor, partial curve, poor fit] | Potency [10]: inconclusive: 13.8 µM [inhibitor, partial curve] | Potency [5]: inconclusive: 29.9 µM [inhibitor, single point] | Potency [6]: inconclusive: 29.9 µM [inhibitor, single point]
